Source: PubChem BioAssay AID485294 (National Center for Advancing Translational Sciences (NCATS), 2010)
The whole screen tested about 370,000 compounds, of which about 150 (0.041%) were called active. The shares of active, inactive and inconclusive entries below differ from those in the screen. The call rests on the fitted dose curve; in most records, active means well fitted inhibition curve with a large enough effect; inconclusive means small, poorly fitted or top-dose-only effect; inactive means flat fitted curve, though single readings scatter. No potency is given beside an inconclusive call; the fits are too rough.

The compounds below were run against Beta-lactamase (Escherichia coli (strain K12)) (UniProt P00811) (assay: qHTS Inhibitors of AmpC Beta-Lactamase (assay with detergent)). Settings: AmpC hydrolysis of nitrocefin, absorbance 480 nm, 0.01% Triton; series mostly up to 114 µM.
Method in brief: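 AmpC (5.3 nM in the dispensed reagent) in 20 mM phosphate pH 7.0 with 0.01% (detergent screen) or 0.0001% Triton X-100 was preincubated with compounds for 15 min at room temperature. Nitrocefin was then added from an 800 uM solution, and hydrolysis was followed at 480 nm.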
Further: nearly all actives have a fitted effect of over 25% in size.
Potency means the concentration at half of the fitted maximal effect; tags describe the fitted curve by direction and shape.

Sequence of UniProt P00811 (P00811 whole entry, looked up): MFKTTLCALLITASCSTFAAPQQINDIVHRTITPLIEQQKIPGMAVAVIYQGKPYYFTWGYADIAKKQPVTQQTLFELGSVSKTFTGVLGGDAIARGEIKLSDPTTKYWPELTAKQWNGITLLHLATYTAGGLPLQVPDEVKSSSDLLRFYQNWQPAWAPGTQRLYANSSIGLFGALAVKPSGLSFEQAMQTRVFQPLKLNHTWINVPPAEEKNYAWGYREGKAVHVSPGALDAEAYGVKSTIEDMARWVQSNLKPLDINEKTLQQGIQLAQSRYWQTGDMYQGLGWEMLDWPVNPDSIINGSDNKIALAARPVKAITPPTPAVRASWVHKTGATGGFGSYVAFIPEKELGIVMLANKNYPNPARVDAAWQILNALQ

Structure (SMILES)	Potency
Cc1ccc(Cn2c(Sc3nnc(C)s3)nc3c2c(=O)[nH]c(=O)n3C)cc1	inconclusive [inhibitor, full curve]
COc1ccc(N2CC(C(=O)Nc3ccc(F)cc3F)CC2=O)cc1 (centres undefined)	inconclusive [inhibitor, full curve, poor fit]
C=C(C)Cn1c(=O)n(CC2CS2)c2ccccc21 (centres undefined)	inconclusive [inhibitor, full curve]
Cc1nnc(Nc2ccc(S(N)(=O)=O)cc2)c2ccccc12	inconclusive [inhibitor, partial curve, poor fit]
CCOC(=O)Cn1cnc2c(nnn2-c2ccccc2)c1=O	inconclusive [inhibitor, full curve, poor fit]
COC(=O)c1cc(=O)n(Cc2ccco2)c(=Nc2ccc(F)c(Cl)c2)s1	inactive
CCOC(=O)C(C)Sc1ncc(-c2ccccc2)cn1 (centres undefined)	inconclusive [inhibitor, partial curve, poor fit]
CCN1CCN(Cc2ccc(NC(=O)Nc3ccc(OC)cc3)cc2)CC1	inconclusive [inhibitor, full curve, poor fit]
O=C(O)c1cccc(NC(=O)c2ccc3c(c2)C(=O)N(C2CCCCC2)C3=O)c1	inactive
CCOC(=O)N1CCc2c(sc3nc(SC(C)C)n(N)c(=O)c23)C1	inactive
COc1ccccc1NC(=O)N1CCN(c2ccccc2F)CC1	inconclusive [inhibitor, partial curve]
CN(C)c1ccc(C(C#N)c2ccc(Cl)cc2)nn1 (centres undefined)	inconclusive [inhibitor, full curve, poor fit]
CCOC(=O)C1CCCN(CCC(=O)Nc2cc(C)cc(C)c2)C1 (centres undefined)	inconclusive [inhibitor, full curve, poor fit]
COc1ccc(C)cc1-n1c(=O)c2ccccc2c2ccccc2c1=O	inactive
COC(=O)c1cc(C(=O)OCC(=O)N(C)c2ccccc2)cc([N+](=O)[O-])c1	inconclusive [inhibitor, full curve, poor fit]
O=C(NCCc1ccc(C(F)(F)F)cc1)c1ccc2c(c1)OCO2	inconclusive [inhibitor, full curve]
CC(C)NC(=O)/C(C#N)=C/c1cccc(NC(=O)c2ccccc2Cl)c1	inconclusive [inhibitor, partial curve, poor fit]
COCCCNC(=O)Cn1nc(-c2cccc(OC)c2)ccc1=O	inactive
CCOC(=O)c1cccc(NC(=O)CSc2nc3cccnc3n2C)c1	inconclusive [inhibitor, partial curve]
CCOC(=O)c1cc(NC(=O)c2ccc(Cl)cc2)c(=O)n2c1oc1ccccc12	inactive
Cc1ccc(NC(=O)CCN2C(=O)NC(C)(C)C2=O)cc1F	inconclusive [inhibitor, full curve, poor fit]
Cc1nc2ccccc2n1C(=O)c1ccc(Cl)cc1[N+](=O)[O-]	inconclusive [inhibitor, full curve, poor fit]

Structure (SMILES)	Potency
CN(Cc1ccccc1)C(=O)CN1CCN(S(=O)(=O)c2ccc(Cl)c(Cl)c2)CC1	inactive
CCNc1cc2oc(=O)c(CN3CCOCC3)c(C)c2cc1C	inconclusive [inhibitor, full curve]
COc1ccc(S(=O)(=O)N2CCN(S(=O)(=O)c3ccc4c(c3)OCCO4)CC2)cc1	inconclusive [inhibitor, full curve, poor fit]
CCOc1ccc(CNC(=O)C2Cc3ccccc3N2C(=O)CC)cc1 (centres undefined)	inactive
Cc1ccc(S(=O)(=O)N2CCC(NC(=O)c3cccnc3)CC2)cc1Cl	inactive
COc1ccc(NC(=O)CCCC(=O)OCC(F)(F)C(F)F)cc1	inconclusive [inhibitor, full curve, poor fit]
CC(=O)NC1(C(F)(F)F)N=C2SCCN2C1=O (centres undefined)	inactive
Cc1ccc(Nc2cc(C)nc3nc(C)nn23)c(C)c1	inconclusive [inhibitor, full curve, poor fit]
CC(C)[C@H](NC(=O)c1ccccc1)C(=O)OCC(=O)N1CC(=O)Nc2ccccc21	inconclusive [inhibitor, partial curve, poor fit]
Cc1ccnc(NS(=O)(=O)c2ccc(NC(=O)c3cc(-c4ccc(Br)cc4)nc4ccccc34)cc2)n1	inactive
CN(CC(=O)Nc1c(Cl)cccc1Cl)C(=O)CCC(=O)c1ccccc1	inconclusive [inhibitor, full curve, poor fit]
Cc1ccc(N=Cc2ccc(N(C)C)cc2)cc1	inconclusive [inhibitor, single point]
Cc1ccc(C(=O)C2=C(O)C(=O)N(CCN3CCOCC3)C2c2ccccn2)o1 (centres undefined)	inactive
COc1ccc(CNC(=O)c2ccc(Cn3cc(Br)cn3)o2)cc1	inactive
O=C(Nc1c2c(nn1-c1ccc(F)cc1)CS(=O)(=O)C2)C1CCCC1	inactive
CCn1c(C2CC(=O)N(Cc3ccccc3)C2)nc2ccccc21 (centres undefined)	inconclusive [inhibitor, full curve, poor fit]
CC1Sc2ccc(S(=O)(=O)CCC(=O)N3CCCC3)cc2NC1=O (centres undefined)	inconclusive [inhibitor, full curve, poor fit]
Cc1ccc(NC(=O)N(Cc2nc3ccccc3c(=O)[nH]2)Cc2cccs2)cc1	inconclusive [inhibitor, partial curve, poor fit]
Cc1sc(NC(=O)c2ccccc2F)c(CN2CCCCC2C)c1C (centres undefined)	inconclusive [inhibitor, single point]
O=C(O)c1ccc([N+](=O)[O-])c(CS(=O)(=O)c2ccc(Cl)cc2)c1	inactive
CCCCc1nc2ccccc2c(NC(=O)CN2CCN(C)CC2)c1CCC	inconclusive [inhibitor, full curve]
COc1ccc(Cl)cc1NC(=O)Cn1cnc2c1c(=O)n(C)c(=O)n2C	inactive
